Experimental data: the supplement of paper PMC11417369
Some of the results follow.

System: PfSIP2 AP2 domain 1 (GST-tagged)
Assay: gcPBM binding intensity (ln(normalized median fluorescence intensity)); higher = stronger DNA binding
Summary of the method: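 Binding intensity is the highest Masliner-normalised natural-log median intensity over replicate spots in either probe orientation. To obtain it, GST-tagged P. falciparum DNA-binding domains made in E. coli were incubated for 1 h on an Agilent 4 × 180k array of primer-extended double-stranded 36-bp intergenic genomic probes plus negative controls. Detection used Alexa488 anti-GST antibody with scanning at 488 nm.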

Row | Sequence | gcPBM binding intensity (ln)
1 | TGCTATATTATTATCGCACACCGTTGATTCTAAATA [CACACA_site1207] | 7
2 | CATTTATTTATATACACACACACAAAAAAAAAAAAA [CACACA_site7279] | 7.07
3 | ATAAGTGTATAAAAATGTACGTGTATAAAAATATGT [XGTACX_site8235] | 7.54
4 | TTTTTAATTTAAAAAAATAATATTTTATATTCCGAA [CACACA_negctrl_site108] | 7.01
5 | TATTTTTTATTTTTTTGTACATATTTGATAATTAAT [XGTACX_site316] | 7.09
6 | GTAAGCATCAAAAAAGGTACAGAAATTATAAATAAA [XGTACX_site6708] | 6.89
7 | AAATATTTATATATATGTACACATATAATATTTTTA [XGTACX_site2338] | 6.98
8 | ATATATGTTATTATTTGTACACACACATATATATCC [XGTACX_site7657] | 7.09
9 | GAAAATTTATTTTTGGTGCATGTATTTATTTATTTT | 9.25
10 | ATTTCTAATATTTTTGCACACTAAACAATAAATTTC [CACACA_site3943] | 7.5
11 | GTATATAATATTAGTGCACACACAAAAATGTACTAA [CACACA_site8112] | 10.9
12 | AGTTTAATATAAAATACACACTACTCTTATAAATAT [CACACA_site6803] | 6.93
13 | ATTTTCTTTCTATGCACACGCACGTATTTGCACCCA [CACACA_site3350] | 11.9
14 | GAAATAATAAATTAAAAATCGTTTATAACATTTAAC [CACACA_negctrl_site425] | 6.65
15 | CTTTTTTTTTGATGTTGTACATATATATTATATAAT [XGTACX_site1321] | 7.16
16 | AGTAATATAATATAAGCACACGTGTATTTATTTAGT [CACACA_site4246] | 7.09
17 | TGGGAGCACAGACACACACACACACCCATATATATA [CACACA_site335] | 7.65
18 | TACAAAATAAAAATAATTCTTTCAAAAAATAATAAA [XGTACX_negctrl_site368] | 6.78
19 | TGCACATTTATGTAACGTACAAAATATAATATGTTA [XGTACX_site8255] | 7.07
20 | TCCTTATATTGGCACACACACACAATAAAATGAAAA [CACACA_site4715] | 7.77
21 | GGTTGCTTCAGTGAATGTACATAGTGGTAAACAAGC [XGTACX_site166] | 7.5
22 | GTATAAAAGTAATGTAGTACTTATATATTTTTATTT [XGTACX_site8975] | 6.98

Row | Sequence | gcPBM binding intensity (ln)
23 | AACATAAGTAAGAATACATGCGGAAATTATATAGAA [TGCATGCA_site112] | 7.05
24 | TATAAATTTAAAATGACACACACTAAAGTTATTTAA [CACACA_site6700] | 6.77
25 | TAAATATTATAAATGATACACACTTAAAATACTCAC [CACACA_site2710] | 6.75
26 | TCCCTTAAAATGATATGTACATAAAAATAAAAAAAA [XGTACX_site836] | 7.36
27 | TATATATTTGTTCACACACACACAAAAAAAAAAAAA [CACACA_site2475] | 7.25
28 | TAAGGACTAATATTTGAACACACATATAATATATAC [CACACA_site9325] | 6.86
29 | CATATATATATATATATATATATATTTATTTATTTA [TGCATGCA_negctrl_site165] | 8.11
30 | GTCATCAAGTATTAAGTGCATTAAAAATAAAATATA | 9.02
31 | TTAAAAGAAAATAACACACACAAAAAAAAAAAAAAA [CACACA_site2117] | 6.75
32 | TTTTGTTTTAAAAGTACACACTTTTAATTAGATTTC [CACACA_site4788] | 6.86
33 | AAAATACACAACATATATATATATATATATATATAT [XGTACX_negctrl_site21] | 9.49
34 | TGATCAATGGATTTAACACACAAAAAAAAAAAAAAA [CACACA_site3845] | 6.75
35 | ATTTATTTTTTACATTGTACATATTTATTCCTTTTA [XGTACX_site8028] | 7.05
36 | TATAACATTTTTTTCAAAATAGCTTTAGAAATAAAG [CACACA_negctrl_site718] | 6.6
37 | TTATTTTCAAAATGTTGTACACACAAAAAAAAAAAA [XGTACX_site3151] | 7.73
38 | TTTTTTTTTTTTTTTGCATGCAGGTTTTTACCCCTT [TGCATGCA_site381] | 6.88
39 | TTTTTTTTCTTCAAGCGTACTTATTTGTAGAAAAAA [XGTACX_site1728] | 6.9
40 | ATATGTGGAAATAGAGCACACATATATATAATATAT [CACACA_site8194] | 7.17
41 | TATGTATATATATAAAGTACGCAAATTTATAATAAG [XGTACX_site8744] | 7.34
42 | ACTAACATATATTCAACACACATATACCTTCAACCC [CACACA_site3011] | 7.15
43 | TATATATATATATACACACACACATATATATATATA [CACACA_site774] | 9.6
44 | CCCATTTAATATTGAGTGCATTTAAATAAATGTATT | 8.98
